Our source for the cytotoxicity call and growth inhibition call values is the antibiotic and cytotoxicity screens of Wong et al. (2023).

The list shows a part of the results.

One assay deals with HepG2. Put plainly: cytotoxicity call (relative viability < 0.9). The conditions noted are these: 10 µM.
Consider `CC(=O)N(C)C[C@H]1Oc2ncc(C#C[C@H](C)O)cc2C(=O)N([C@H](C)CO)C[C@@H]1C`, for which the cytotoxicity call was “inactive”.
Take `COc1ccc(NC(=O)N(C)C[C@H]2OCCCC[C@H](C)Oc3ccc(NS(=O)(=O)c4ccccc4)cc3C(=O)N([C@@H](C)CO)C[C@H]2C)cc1`: the cytotoxicity call is “inactive”.
In the case of `CCN(CC)C(=O)N1CCN(CCC#N)CC1`, the cytotoxicity call is “inactive”.
On the same count and under the same terms, to `C[C@H]1CN([C@@H](C)CO)C(=O)c2cc(NS(=O)(=O)c3ccc(F)cc3)ccc2O[C@@H]1CN(C)S(=O)(=O)c1ccc(F)cc1` belongs “inactive”; to `C[C@H]1CN([C@@H](C)CO)C(=O)c2cc(NS(C)(=O)=O)ccc2O[C@H]1CN(C)Cc1ccc2c(c1)OCO2`, “inactive”; to `C[C@H](CO)N1C[C@H](C)[C@H](CN(C)S(=O)(=O)c2ccccc2)OCCCC[C@H](C)Oc2ccc(NC(=O)Nc3cccc4ccccc34)cc2C1=O`, “inactive”.
Same read-out and setting: to `N#CC(c1ccc(Cl)cc1)c1c(Cl)cc(-n2ncc(=O)[nH]c2=O)cc1Cl` (centres undefined) belongs “inactive”; to `C[C@@H]1CN([C@@H](C)CO)C(=O)c2cc(NC(=O)Cc3cn(C)c4ccccc34)ccc2O[C@H]1CN(C)S(=O)(=O)c1cn(C)cn1`, “inactive”.
Turning to `CC1OC(OC2C(O)CC(OC3C(O)CC(OC4CCC5(C)C(CCC6C5CCC5(C)C(C7=CC(=O)OC7)CCC65O)C4)OC3C)OC2C)CC(O)C1O` (centres undefined), the cytotoxicity call was “active”.

The test system of another assay is S. aureus RN4220. Put plainly: growth inhibition call (relative growth <= 0.2). The conditions noted are these: 50 µM.
Turning to `Cc1noc(C)c1NC(=O)Nc1ccc2c(c1)CC(=O)N([C@H](C)CO)C[C@H](C)[C@@H](CN(C)CC1CC1)O2`, the growth inhibition call is “inactive”.
On the same count and under the same terms, the value for `C[C@H]1CN([C@@H](C)CO)C(=O)c2cccc(NC(=O)c3ccncc3)c2O[C@H]1CN(C)S(=O)(=O)c1cn(C)cn1` was “inactive”.
Still for that read-out and setting: to `Cc1c(Cl)cccc1Nc1ccccc1C(=O)O` belongs “inactive”; to `Nc1nc(CO)cs1`, “inactive”; to `C[C@H]1CCCCO[C@H](CN(C)C(=O)Nc2cccc3ccccc23)[C@@H](C)CN([C@@H](C)CO)C(=O)c2cc(NC(=O)Nc3cccc4ccccc34)ccc2O1`, “inactive”.
Same read-out and setting: to `C[C@H](CO)N1C[C@H](C)[C@@H](CN(C)Cc2ccc(-c3ccccc3)cc2)Oc2c(NC(=O)Nc3ccccc3)cccc2C1=O` belongs “inactive”; to `C[C@@H]1CCCCO[C@H](CN(C)C(=O)Nc2ccccc2)[C@H](C)CN([C@H](C)CO)C(=O)c2cc(NC(=O)NC3CCCCC3)ccc2O1`, “inactive”.
On to `CNC1C(OC2C(OC3C(O)C(O)C(NC(=N)N)C(O)C3NC(=N)N)OC(C)C2(O)CO)OC(CO)C(O)C1O.O=S(=O)(O)O` (centres undefined), for which the growth inhibition call was “inactive”.
The same measure, in the same setting: the value for `CN(C)CCCNC(=O)C[C@H]1CC[C@H](NS(=O)(=O)c2ccccc2)[C@@H](CO)O1` was “inactive”.
The same measure, in the same setting: to `C[C@@H]1CCCCO[C@H](CN(C)C(=O)Cc2ccccc2)[C@H](C)CN([C@@H](C)CO)C(=O)c2cc(NC(=O)Nc3ccccc3)ccc2O1` belongs “inactive”; to `Cc1noc(C)c1NC(=O)N(C)C[C@@H]1Oc2ccc(NS(=O)(=O)c3ccccc3)cc2C(=O)N([C@H](C)CO)C[C@@H]1C`, “inactive”.
Same read-out and setting: to `COc1ccc(CNC(=O)N(C)C[C@H]2OCc3ccccc3-c3c(n(C)c4ccccc34)C(=O)N([C@@H](C)CO)C[C@H]2C)cc1` belongs “inactive”; to `C[C@@H]1CN([C@H](C)CO)C(=O)c2cc(NC(=O)Nc3cccc4ccccc34)ccc2O[C@H]1CN(C)Cc1ccc(Cl)c(Cl)c1`, “inactive”.
Regarding `O=C(C[C@H]1C[C@@H]2c3cc(NC(=O)c4ccc5c(c4)OCO5)ccc3O[C@@H]2[C@@H](CO)O1)NCC(F)(F)F`, the growth inhibition call was “inactive”.
Same read-out and setting: to `C[C@H]1CN([C@@H](C)CO)C(=O)Cc2cc(NC(=O)Nc3ccc(C(F)(F)F)cc3)ccc2O[C@H]1CN(C)Cc1ccc(-c2ccccc2)cc1` belongs “inactive”; to `C[C@@H]1CCCCO[C@H](CN(C)C(=O)C2CCCCC2)[C@@H](C)CN([C@H](C)CO)C(=O)c2cc(NS(=O)(=O)c3ccc(Cl)cc3)ccc2O1`, “inactive”.
Turning to `Cc1noc(C)c1NC(=O)Nc1ccc2c(c1)C(=O)N([C@H](C)CO)C[C@@H](C)[C@@H](CN(C)S(=O)(=O)c1ccc(F)cc1)OCCCC[C@@H](C)O2`, the growth inhibition call is “inactive”.
Same read-out and setting: to `NCc1ccc(-n2cccn2)cc1` belongs “inactive”; to `O=C(NCC[C@@H]1CC[C@@H](NS(=O)(=O)c2cccc(F)c2)[C@@H](CO)O1)C1CC1`, “inactive”; to `COc1ccc(S(=O)(=O)Nc2ccc3c(c2)[C@H]2C[C@@H](CC(=O)NCC4CC4)O[C@H](CO)[C@H]2O3)cc1`, “inactive”.
On the same count and under the same terms, the value for `CN1CCN(C(=O)c2ccc(N)cc2)CC1` was “inactive”; that for `O=C(CN1CCOCC1)NCC[C@@H]1CC[C@H](NC(=O)c2ccccc2F)[C@H](CO)O1` was “inactive”; that for `CC1(C)C=Cc2cc(C#N)ccc2O1` was “inactive”.
Still for that read-out and setting: the value for `C[C@@H]1CCCCO[C@@H](CN(C)C(=O)Cc2ccccc2)[C@H](C)CN([C@@H](C)CO)C(=O)c2cc(NC(=O)Nc3ccc(C(F)(F)F)cc3)ccc2O1` was “inactive”; that for `COCC(=O)N1CC[C@]2(CC1)CN([C@H](CO)c1c2c2ccc(cc2n1C)OC)C(=O)Cc1ccccc1` was “inactive”.
`COc1cccc(C#Cc2ccc3c(c2)O[C@@H](CN(C)C(=O)c2ccccn2)[C@H](C)CN([C@H](C)CO)S3(=O)=O)c1`: the growth inhibition call is “inactive”.
Consider `Cc1ccc(S(=O)(=O)N(C)C[C@@H]2OCCCC[C@H](C)Oc3ccc(NC(=O)Nc4ccc5c(c4)OCO5)cc3C(=O)N([C@H](C)CO)C[C@H]2C)cc1`, for which the growth inhibition call is “inactive”.
On to `COc1ccc(S(=O)(=O)N(C)C[C@H]2Oc3ccc(N(C)C)cc3CC(=O)N([C@H](C)CO)C[C@@H]2C)cc1`, for which the growth inhibition call was “inactive”.
Consider `COCC(=O)N1CC[C@]2(CC1)CN([C@@H](CO)c1[nH]c3cc(ccc3c12)OC)C(=O)Nc1ccccc1F`, for which the growth inhibition call was “inactive”.
Same read-out and setting: to `CNS(=O)(=O)c1ccc2[nH]c(=O)[nH]c2c1` belongs “inactive”; to `COc1ccc(NC(=O)N(C)C[C@@H]2OCCCC[C@@H](C)Oc3ccc(NS(=O)(=O)c4ccc(OC)cc4)cc3C(=O)N([C@@H](C)CO)C[C@H]2C)cc1`, “inactive”.
The same measure, in the same setting: to `CC(=O)N(C)C[C@H]1Oc2ncc(C#C[C@H](C)O)cc2C(=O)N([C@H](C)CO)C[C@@H]1C` belongs “inactive”; to `COc1ccc(NC(=O)N(C)C[C@H]2OCCCC[C@H](C)Oc3ccc(NS(=O)(=O)c4ccccc4)cc3C(=O)N([C@@H](C)CO)C[C@H]2C)cc1`, “inactive”.
On the same count and under the same terms, the value for `CCN(CC)C(=O)N1CCN(CCC#N)CC1` was “inactive”; that for `C[C@H]1CN([C@@H](C)CO)C(=O)c2cc(NS(=O)(=O)c3ccc(F)cc3)ccc2O[C@@H]1CN(C)S(=O)(=O)c1ccc(F)cc1` was “inactive”.
Consider `C[C@H]1CN([C@@H](C)CO)C(=O)c2cc(NS(C)(=O)=O)ccc2O[C@H]1CN(C)Cc1ccc2c(c1)OCO2`, for which the growth inhibition call is “inactive”.
Still for that read-out and setting: the value for `C[C@H](CO)N1C[C@H](C)[C@H](CN(C)S(=O)(=O)c2ccccc2)OCCCC[C@H](C)Oc2ccc(NC(=O)Nc3cccc4ccccc34)cc2C1=O` was “inactive”; that for `N#CC(c1ccc(Cl)cc1)c1c(Cl)cc(-n2ncc(=O)[nH]c2=O)cc1Cl` (centres undefined) was “active”.
On the same count and under the same terms, the value for `C[C@@H]1CN([C@@H](C)CO)C(=O)c2cc(NC(=O)Cc3cn(C)c4ccccc34)ccc2O[C@H]1CN(C)S(=O)(=O)c1cn(C)cn1` was “inactive”.
Same read-out and setting: to `CC1OC(OC2C(O)CC(OC3C(O)CC(OC4CCC5(C)C(CCC6C5CCC5(C)C(C7=CC(=O)OC7)CCC65O)C4)OC3C)OC2C)CC(O)C1O` (centres undefined) belongs “inactive”.
